Measured values taken from PubChem BioAssay AID686979 (National Center for Advancing Translational Sciences (NCATS), 2013).
The whole screen tested about 420,000 compounds, of which about 50,000 (12%) were called active. Inconclusive results, whose numbers are uncertain, are shown with a selection of clear calls. The call rests on the fitted dose curve; in most records, active means well fitted inhibition curve with a large enough effect; inconclusive means small, poorly fitted or top-dose-only effect; inactive means flat fitted curve, though single readings scatter. Potencies of inconclusive entries are left out as doubtful fits.

assay: qHTS for Inhibitors of human tyrosyl-DNA phosphodiesterase 1 (TDP1): qHTS in cells in presence of CPT; details: chicken DT40 Tdp1-/-;hTDP1 cells + 20 nM CPT, ATP luminescence, 48 h; activity change, negative = growth inhibition: at 46.2 µM (top of the series); further: nearly all actives have a fitted effect of over 55% in size
Method in brief: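 Cell growth measured by CellTiter-Glo luminescence after a minimum 48 h, 37 C compound exposure with 20 nM CPT in Tdp1-knockout DT40 cells stably expressing hTDP1, seeded 400/well; qHTS titration format.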
On the % scale 0 is the no-effect control and ±100 the full control effect; potency means the concentration at half of the fitted maximal effect; tags describe the fitted curve by direction and shape.

Question: For `Cc1cc(N2C(=O)C(O)=C(C(=O)c3ccc(C)o3)C2c2ccc([N+](=O)[O-])cc2)no1` (stereo not drawn), which Potency is on record?
Answer: inconclusive [inhibitor, single point]

Question: With `CN(C(=O)CSc1nc2c(c(=O)[nH]1)CCC2)c1ccccc1` as the molecule, how does the Potency read?
Answer: inactive

Question: For `O=C(CCc1ccccc1)NC(=S)Nc1ccc2c(c1)C(=O)OC2`, which Potency is on record?
Answer: inactive

Question: Which Potency does the source give for `CCc1nc2c(OCc3cccc(Cl)c3)cccn2c1N(C)C(=O)c1ccco1` here?
Answer: inconclusive [inhibitor, single point]

Question: Which Potency does the source give for `Cc1ccc(-n2c(C)cc(/C=N/NC(=O)CN(c3ccc(C)cc3C)S(C)(=O)=O)c2C)cc1` here?
Answer: inconclusive [inhibitor, single point]

Question: With `COc1ccc(-n2c(N)c(C(=O)NCc3ccco3)c3nc4ccccc4nc32)cc1` as the molecule, how does the Potency read?
Answer: inconclusive [inhibitor, partial curve]

Question: With `CCOc1ccc(CNC(=O)c2cnc3sc(N(CC)CC)nn3c2=O)cc1` as the molecule, how does the Potency read?
Answer: inconclusive [inhibitor, single point]

Question: For `O=C(Nc1ccccc1)c1ccc2ccccc2n1`, which Potency is on record?
Answer: inconclusive [inhibitor, single point]

Question: For `NC(=O)COc1ccc(NC(=O)OCc2ccccc2)cc1`, which Potency is on record?
Answer: inactive

Question: With `CCOc1ccc(CCNC(=O)c2cccc(-n3c(C)nc4cccnc43)c2C)cc1` as the molecule, how does the Potency read?
Answer: active: 20.6 µM

Question: For `CSCC(=O)Nc1ccc(F)c(Cl)c1`, which Potency is on record?
Answer: inactive

Question: For `CCOC(=O)C1(CCOc2ccccc2)CCN(Cc2cc(OC)ccc2OC)CC1`, which Potency is on record?
Answer: inconclusive [inhibitor, single point]

Question: For `Cc1cc(N2CCCCC2)nc(N2CCCCC2)n1`, which Potency is on record?
Answer: inconclusive [inhibitor, single point]

Question: Which Potency does the source give for `CCOC(=O)CCCN1C(=O)CCn2nc(-c3cn(C)c4ccccc34)cc21` here?
Answer: inconclusive [inhibitor, single point]

Question: For `CCCCC(CCC(=O)Nc1ccc(C(=O)OC)cc1)C(=O)O` (stereo not drawn), which Potency is on record?
Answer: inactive

Question: For `OCC1(Cc2ccc(F)cc2)CCCN(Cc2ccc(F)cc2Cl)C1` (stereo not drawn), which Potency is on record?
Answer: inactive

Question: Which Potency does the source give for `O=C1/C(=C/c2ccc(O)cc2)COc2ccccc21` here?
Answer: inactive

Question: For `CN1C(c2ccc(F)cc2)=CS/C1=C(/C#N)c1nnc2n1-c1ccccc1SC2`, which Potency is on record?
Answer: inconclusive [inhibitor, single point]

Question: With `CCCOc1cccc(C(=O)N2CCN(C(=O)C3CCCO3)CC2)c1` (stereo not drawn) as the molecule, how does the Potency read?
Answer: inactive

Question: With `O=C(OCC(=O)N1CCN(c2ccccc2)CC1)c1ccc[n+]([O-])c1` as the molecule, how does the Potency read?
Answer: inactive

Question: Which Potency does the source give for `CCC(C)(C)NC(=O)CN(C(=O)c1ccc(N2CCCC2)nc1)c1ccc(F)cc1` here?
Answer: inconclusive [inhibitor, single point]

Question: For `C=CCNc1nc(NCc2ccco2)nc(OCC)n1`, which Potency is on record?
Answer: active: 20.6 µM

Question: Which Potency does the source give for `CSc1cccc(NC(=O)CN(C)S(=O)(=O)c2cnc[nH]2)c1` here?
Answer: inactive

Question: For `CCN(CC(=O)NCc1ccc(Cl)cc1)CC(=O)Nc1ccc(C(N)=O)cc1`, which Potency is on record?
Answer: inactive

Question: With `O=C(N/N=C/c1ccc(-c2ccc(Cl)c(C(=O)O)c2)o1)c1cc2c(ccc3ccccc32)o1` as the molecule, how does the Potency read?
Answer: inactive

Question: Which Potency does the source give for `CCOC(=O)C1CCCN(C(=O)c2cc3nc(-c4cccc(OC)c4)cc(C(F)(F)F)n3n2)C1` (stereo not drawn) here?
Answer: inconclusive [inhibitor, single point]

Question: With `O=C(COC(=O)c1ccc2ncsc2c1)Nc1cc([N+](=O)[O-])ccc1Cl` as the molecule, how does the Potency read?
Answer: inactive

Question: For `CCCCN(Cc1ccccc1)S(=O)(=O)c1cc(Br)cc2c1N(C(C)=O)CC2`, which Potency is on record?
Answer: inconclusive [inhibitor, single point]

Question: Which Potency does the source give for `COCCc1ccc(OC2(C)CCN(Cc3cccn3-c3nccs3)C2)cc1` (stereo not drawn) here?
Answer: inconclusive [inhibitor, single point]

Question: For `CC(C)(C)c1cc(NCc2ccccn2)n2ncc(-c3ccc(Cl)cc3)c2n1`, which Potency is on record?
Answer: inconclusive [inhibitor, single point]

Question: With `COc1ccc(OC)c(C=NN=Cc2cc(OC)ccc2OC)c1` as the molecule, how does the Potency read?
Answer: inactive

Question: Which Potency does the source give for `O=C1CC(c2ccc(Cl)cc2)c2cc3c(cc2N1)OCCO3` (stereo not drawn) here?
Answer: inconclusive [inhibitor, partial curve]

Question: With `Cc1cc(N2CCCCCC2)nc2ccccc12` as the molecule, how does the activity change, negative = growth inhibition read?
Answer: inconclusive: -33.5% [inhibitor]

Question: With `COc1cccc(C#CC2=CC(=O)C[C@H](c3ccc(F)cc3)C2)c1` as the molecule, how does the Potency read?
Answer: active: 13 µM

Question: For `CCCCNC(=O)c1nc(-c2ccncc2)oc1-c1ccccc1`, which Potency is on record?
Answer: inconclusive [inhibitor, single point]

Question: Which Potency does the source give for `N#Cc1nc(-c2ccc(OCc3ccccc3)cc2)oc1N1CCOCC1` here?
Answer: inactive

Question: With `CCc1cccc(C)c1NC(=O)C1CCN(S(=O)(=O)c2cccc3nonc23)CC1` as the molecule, how does the Potency read?
Answer: inactive

Question: For `C=C(Br)COC(c1ccco1)[C@H](Cc1ccccc1)NC(=O)OC(C)(C)C` (stereo partly drawn), which Potency is on record?
Answer: inconclusive [inhibitor, single point]

Question: With `O=C(COc1ccc2oc(-c3ccccc3)cc(=O)c2c1)NCc1ccco1` as the molecule, how does the Potency read?
Answer: inconclusive [inhibitor, single point]

Question: Which Potency does the source give for `Cc1cc(Nc2ccc(Br)cc2)nc2ccccc12` here?
Answer: inconclusive [inhibitor, single point]

Question: Which Potency does the source give for `Cc1cccc(Sc2ccc([N+](=O)[O-])cc2[N+](=O)[O-])n1` here?
Answer: active: 3.26 µM

Question: With `O=C1CN(C(=O)CSc2nc3ccccc3n2CCc2ccccc2)c2ccccc2N1` as the molecule, how does the Potency read?
Answer: inconclusive [inhibitor, single point]

Question: With `COc1ccc(OCC(O)Cn2cnc(-c3ccc(Br)cc3)c2)cc1` (stereo not drawn) as the molecule, how does the Potency read?
Answer: inconclusive [inhibitor, partial curve]

Question: Which Potency does the source give for `Cc1ccc(C(O)c2ncc(-c3ccc(F)cc3)[nH]2)cc1F` (stereo not drawn) here?
Answer: inconclusive [inhibitor, single point]

Question: With `CCOCCCNC(=O)c1cc(=O)[nH]c2ccc(S(=O)(=O)N3CCCC3)cc12` as the molecule, how does the Potency read?
Answer: inactive

Question: Which Potency does the source give for `CCOc1ccc(CNC(=O)c2cccn2-c2nnc(N3CCCCC3)s2)cc1OC` here?
Answer: active: 25.9 µM

Question: Which Potency does the source give for `COc1ccc(-c2nc3c(c(SCC(=O)Nc4ccccc4OC)n2)Cc2cccc(C)c2O3)cc1` here?
Answer: inactive

Question: With `O=C(Nc1cccc(-n2cnnn2)c1)c1ccc(Cl)cc1Cl` as the molecule, how does the Potency read?
Answer: inconclusive [inhibitor, single point]
